# According to PubChem BioAssay AID463173 (ICCB-Longwood Screening Facility, Harvard Medical School, 2010):
# About 1,700 (3.3%) of roughly 52,000 compounds were called active. Cut-off read from the data, not from the text of the source: active = survival mostly below about 52% (no sharp cut-off); inactive = mostly above about 56%. The list shows a part of the results.
# Test system: Wild type
# Assay: growth inhibition of S. aureus wild type versus tarO mutant, primary screen, teichoic acid synthesis inhibitors, RN4220, OD600 (AID 463173)
# Conditions: S. aureus RN4220 wild type/DeltatarO growth, OD600, 18 h, stronger effect = lower value; concentration not given here unless noted
row,Structure (SMILES),survival
1,Cc1cccc(Cn2cccc(C(=O)Nc3nc4ccccc4s3)c2=O)c1,inactive: 127%
2,COc1cccc(-n2c(/C=C/c3cccc(C)c3)nc3ccccc3c2=O)c1,active: 0%
3,O=C1NC(=O)C(=Cc2ccc(N3CCOCC3)cc2)C(=O)N1,inactive: 86%
4,Cc1cccc(-n2c(CC3C(=O)Nc4ccc(C)cc43)nc3ccccc3c2=O)c1 (centres undefined),inactive: 50%
5,O=C(CN1CCC(N2CCCCC2)CC1)N1CCC2(CC1)OCCO2,inactive: 92%
6,Cc1ccc(NC(=O)c2cccn(Cc3ccccc3C)c2=O)c(C)c1,inactive: 70%
7,CSc1nnc(CCN)n1C,inactive: 115%
8,CN1C(=O)C(C(=O)O)C2CC1Oc1ccccc12 (centres undefined),inactive: 131%
9,CC(C)c1nn2c(=O)cc(COC(=O)Cc3ccccc3)nc2s1,inactive: 71%
10,O=C1CN=C(c2ccccc2Cl)c2cc(Cl)ccc2N1Cc1cccc(Cl)c1,inactive: 128%
11,COc1ccc(-n2c(/C=C\c3ccccc3F)nc3ccccc3c2=O)cc1OC,inactive: 72%
12,Nc1c(C(=O)Nc2ccc(Cl)c(C(F)(F)F)c2)sc2nc3c(cc12)N1CCC3CC1,active: 1%
13,COc1cccc(-n2c(/C=C/c3ccccc3O)nc3ccccc3c2=O)c1,inactive: 20%
14,CCCCCc1nc2ccccc2c(=O)n1-c1ccc(C)cc1,inactive: 70%
15,Cc1ccccc1-n1nc(C)c2c1NC(=O)CSC2c1ccc(N(C)C)cc1 (centres undefined),inactive: 89%
16,CC(C)(C)C(=O)c1cn(CC(=O)NCc2ccco2)c2ccccc12,inactive: 119%
17,COC(=O)C1=C(N)Oc2cc(C)oc(=O)c2C12C(=O)Nc1ccccc12 (centres undefined),inactive: 95%
18,Cc1ccc(CN2C(=O)c3ccccc3Sc3ccc(C(=O)N4CCC5(CC4)OCCO5)cc32)cc1,inactive: 75%
19,CC1(C)CC(=O)C(C2(O)C(=O)NC(=O)NC2=O)=C(O)C1,inactive: 118%
20,Cc1ccccc1Cn1cccc(C(=O)Nc2nc3ccccc3s2)c1=O,inactive: 74%
21,N#CC(C#N)=Cc1sc2ccccc2c1Cl,inactive: 103%
22,CCCCc1nn2c(=O)cc(COC(=O)Cc3ccccc3)nc2s1,inactive: 84%
23,O=C1CSC2N1CCNC21CCCCC1 (centres undefined),inactive: 103%
24,C=Cc1ccc(Cn2c(C)c(CNCCc3cc(OC)ccc3OC)c(C(=O)O)c2C)cc1,inactive: 81%
25,CN1CCCC(C(=O)c2ccccc2)C1 (centres undefined),inactive: 108%

row,Structure (SMILES),survival
1,Cc1cc(C=C(C#N)C#N)c(C)n1C1CCCC1,inactive: 118%
2,O=C(Nc1cc(C(F)(F)F)cc(C(F)(F)F)c1)c1cccn(Cc2ccccc2Cl)c1=O,inactive: 89%
3,COc1cc(NC(=O)CN2C3CCC2CC(O)(c2cccnc2)C3)cc(OC)c1 (centres undefined),inactive: 104%
4,CC(C)(C)c1ccc(C(=O)Nc2ccc(Cl)cc2C(=O)c2ccccc2)cc1,active: 3%
5,c1cc2c(cc1N1CCNCC1)OCCO2,inactive: 115%
6,OCC1(CO)COC(c2cccnc2)N1 (centres undefined),inactive: 109%
7,CCC1CN(C)CCC1(O)c1ccccc1 (centres undefined),inactive: 103%
8,CCc1nc2ccccc2c(=O)n1-c1cccc(OC)c1,inactive: 115%
9,O=C(COc1cc(Cl)ccc1Cl)Nc1ccc(Cl)cc1C(=O)c1ccccc1,inactive: 75%
10,Cc1cccc(CN2CC=C(c3noc(CCC(=O)Nc4ccc(C)c(F)c4)n3)CC2)c1,inactive: 82%
11,Fc1ccccc1CN1CCN(Cc2ccccc2F)CC1,inactive: 119%
12,Cc1ccc2c(c1)C(Cc1nc3ccccc3c(=O)n1-c1ccc(Br)cc1)C(=O)N2 (centres undefined),inactive: 90%
13,N#CSCC(=O)N1c2ccccc2CCc2ccccc21,inactive: 41%
14,O=C(COc1ccccc1F)N1CCN(Cc2cc(=O)n3nc(-c4ccccc4Cl)sc3n2)CC1,inactive: 136%
15,O=C(Cn1ncc2c([nH]c3ccccc32)c1=O)NCCCN1CCN(c2ccccc2)CC1,inactive: 78% [screened at 18.75 µg/mL (by protocol)]
16,Cc1ccc(-n2c(=O)[nH]c3ccc(Br)cc3c2=O)cc1,inactive: 67%
17,Cc1cccc(OCC(=O)N2CCN(CCc3ccccn3)CC2)c1,inactive: 86%
18,COc1ccc(NC2=NCC(C)S2)cc1 (centres undefined),inactive: 113%
19,CCOc1nc(NCc2ccco2)nc(N2CC3CC(C2)c2cccc(=O)n2C3)n1 (centres undefined),inactive: 104%
20,O=C(Nc1ccc(F)c([N+](=O)[O-])c1)c1cccn(Cc2ccccc2)c1=O,inactive: 115%
21,O=C(COc1ccc(C=C2C(=O)NC(=O)NC2=O)cc1)NCC1CCCO1 (centres undefined),inactive: 109%
22,CC(C)(C)c1nc(N2CCN(C(=O)c3ccco3)CC2)c2nnn(Cc3ccccc3Cl)c2n1,inactive: 109%
23,N#CC1=C(N)Oc2c(c(=O)oc3ccccc23)C1Cc1ccccc1 (centres undefined),inactive: 97%
24,CCC(CC)C(=O)NC1CCSC1=O (centres undefined),inactive: 111%
